Assay results reported in patent EP2767275A1, “Nortriptyline, haloperidol or prochlorperazine edisylate for use in the treatment of tuberculosis as well as two screening methods” (priority 2013, dated 2014).

Tested on: M. tuberculosis
Conditions: data not shown

Row | SMILES | bacteriostatic activity in plate assay of M. tuberculosis
1 | CNCCC=C1c2ccccc2CCc2ccccc21 [Nortriptyline, 3-(10,11-dihydro-5H-dibenzo[a,d]cyclohepten-5-ylidene)-N-methyl-1-propanamine] | did not show bacteriostatic activity
2 | CN1CCN(CCCN2c3ccccc3Sc3ccc(Cl)cc32)CC1 [Prochlorperazine edisylate, 2-chloro-10-[3-(4-methyl-1-piperazinyl)propyl]-10H-phenothiazine] | did not show bacteriostatic activity
3 | O=C(CCCN1CCC(O)(c2ccc(Cl)cc2)CC1)c1ccc(F)cc1 [Haloperidol, 4-[4-(4-chlorophenyl)-4-hydroxy-1-piperidyl]-1-(4-fluorophenyl)-butan-1-one] | did not show bacteriostatic activity
